# Results: PubChem BioAssay AID1745845 (National Center for Advancing Translational Sciences (NCATS), 2022)
# Out of some 360,000 compounds screened, about 2,600 (0.72%) were called active. The shares of active, inactive and inconclusive entries below differ from those in the screen. The call rests on the fitted dose curve; in most records, active means well fitted inhibition curve with a large enough effect; inconclusive means small, poorly fitted or top-dose-only effect; inactive means no such curve, though single readings can be large or run the other way. Potencies of inconclusive entries are doubtful fits and often do not repeat.
# Assay: Primary qHTS for Inhibitors of ATXN expression; further: nearly all actives have a fitted effect of over 55% in size
# Conditions: HEK-293 ATXN2-luciferase reporter, luminescence, 24 h; activity change, negative = inhibition: at 57 µM (top of the series)
# Outline: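 qHTS (up to 57 uM final) was run with 24 h compound exposure of reporter cells at 37 °C. Each well was multiplexed: SteadyGlo luminescence measured ATXN2-luciferase expression after a fluorogenic Gly-Phe-AFC viability readout (25 uM final).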
# On the % scale 0 is the no-effect control and ±100 the full control effect; potency means the concentration at half of the fitted maximal effect; tags describe the fitted curve by direction and shape.
SMILES,Potency,"activity change, negative = inhibition"
CCOc1cc(CNCCSc2nnnn2C)ccc1OCc1ccc(Cl)cc1Cl,"inconclusive: 22.4 µM [inhibitor, single point]",
O=C(CCS(=O)(=O)c1ccc(Cl)cc1)N1CCN(c2ccc(F)cc2)CC1,,inactive: -19.9%
COc1ccc(CN(C)C(=O)c2cccc(NC(=O)CC3SC(N4CCCCC4)=NC3=O)c2)c(OC)c1 (centres undefined),active: 20 µM,
CC(O)CNc1nc2c(c(=O)n(C)c(=O)n2C)n1CCc1ccccc1 (centres undefined),,inactive: 5.1%
Cn1nc([N+](=O)[O-])nc1S(C)(=O)=O,"inconclusive: 39.8 µM [inhibitor, single point]",
CCCCCC(=O)N1C[C@@H](n2cc(COC(=O)c3ccccc3)nn2)[C@H](O)C[C@@H]1c1ccc(Cl)cc1,"inconclusive: 35.5 µM [inhibitor, single point]",
N#CCCN(Cc1ccccc1)C(=S)Nc1ccc(F)cc1,"inconclusive: 2.82 µM [inhibitor, partial curve, poor fit]",
CCN(CC)C(=O)c1nn(-c2ccccc2)c2c1C1CCC2(C)C1(C)C (centres undefined),"inconclusive: 6.31 µM [inhibitor, partial curve, poor fit]",
COC(=O)[C@]12CCCCC=C1N(Cc1cccc3ccccc13)C(=O)[C@H](CC(=O)NCc1cccc(C(F)(F)F)c1)C2,"inconclusive: 39.8 µM [inhibitor, partial curve, poor fit]",
Cc1ccc(-n2nc(C(=O)N3CCCCC3)c(=O)n(C)c2=O)cc1,,inactive: 1.55%
COc1ccc(S(=O)(=O)N2CCOCC2)cc1NC(=O)COc1ccc(C(C)=O)cc1OC,,inactive: -0.545%
Cc1ccc(Oc2ccc(OCC(=O)NC3CCS(=O)(=O)C3)cc2)cc1 (centres undefined),"inconclusive: 15.8 µM [inhibitor, partial curve]",
CCc1ccc(S(=O)(=O)NCc2cccn2Cc2cccc(C)c2)cc1,"inconclusive: 17.8 µM [inhibitor, single point]",
COc1ccc(-c2cc(-c3n[nH]c(=S)n3-c3cccc4ccccc34)[nH]n2)cc1,,inconclusive: -47.2% [inhibitor]
N=C1C=CC(=C(c2ccc(N)cc2)c2ccc(N)cc2)C=C1,"inconclusive: 17.8 µM [inhibitor, partial curve, poor fit]",
O=C(NCCN1CCOCC1)/C(=C/c1ccc(Cl)cc1)NC(=O)c1ccccc1,,inactive: -1.56%
CC(Oc1cccc(Cl)c1)C(=O)Nc1cc(=O)n(C)c(=O)n1C (centres undefined),,inactive: -13.6%
COc1ccc(Cl)cc1NC(=O)CN(c1cccc(C)c1C)S(C)(=O)=O,"inconclusive: 35.5 µM [inhibitor, single point]",
Cc1nc(N/N=C/c2ccc(O)cc2O)cc(N2CCOCC2)n1,"inconclusive: 6.31 µM [inhibitor, full curve]",
CCN(C(C)=O)c1cnc(C=NNC(N)=S)c2ccccc12,"inconclusive: 8.44 µM [inhibitor, full curve, poor fit]",
Cc1ccc(-n2ncc(C(=O)NCCc3ccsc3)c2C2CCN(C(=O)OC(C)(C)C)CC2)c(C)c1,"inconclusive: 22.4 µM [inhibitor, single point]",
C[C@@H]1CN([C@@H](C)CO)C(=O)c2cccc(NC(=O)C3CCCCC3)c2O[C@@H]1CN(C)Cc1ccc(Cl)c(Cl)c1,"inconclusive: 39.8 µM [inhibitor, single point]",

SMILES,Potency,"activity change, negative = inhibition"
C=C(C)COc1ccc(-c2n[nH]c(C)c2-c2ccccc2OC)c(O)c1,"inconclusive: 39.8 µM [inhibitor, partial curve, poor fit]",
Nc1nc(-c2ccc(Br)cc2)cs1,,inactive: 39.9%
CCOC(CNC(=O)c1cccn2c(=O)c3cc(Cl)ccc3nc12)OCC,"inconclusive: 17.8 µM [inhibitor, partial curve]",
CCCCOCCCNC(=O)C[C@@H]1C[C@@]2(C(=O)OCC)CCC=C2N(Cc2cccc3ccccc23)C1=O,"inconclusive: 25.1 µM [inhibitor, single point]",
CCc1nnc(NC(=O)c2ccc(S(=O)(=O)N(CCOC)CCOC)cc2)o1,,inactive: -12.1%
COc1cc(NS(=O)(=O)c2ccc(N)cc2)nc(C)n1,,inactive: 6.31%
CCOc1ccccc1C(=O)Nc1ccc2nc(N3CCN(c4ncccn4)CC3)cc(C)c2c1,active: 14.1 µM,
CCCn1c(SC(C(=O)Nc2cc(C)ccc2OC)c2ccccc2)nc2ccccc2c1=O (centres undefined),,inactive: 2.54%
CCOC(=O)c1c(S(=O)(=O)NCC(=O)Nc2ccc(Cl)c(C(F)(F)F)c2)c(C)n(C)c1C,"inconclusive: 39.8 µM [inhibitor, single point]",
Cc1ccc2nc(NC(=O)CSc3nc(=O)n(CCCN(C)C)c4c3CCC4)sc2c1,"inconclusive: 22.4 µM [inhibitor, partial curve, poor fit]",
S=C(NCCc1ccccc1)NC1CC2CCC(C1)N2Cc1ccccc1 (centres undefined),,inactive: -26.4% [at 11.3 µM]
COc1cccc(NC(=O)CN(Cc2ccccc2)S(=O)(=O)c2ccc3nc(C)sc3c2)c1,"inconclusive: 39.8 µM [inhibitor, single point]",
COc1ccc(/C=C/C(=O)c2cc(Br)ccc(=O)c2O)cc1,"inconclusive: 39.8 µM [inhibitor, single point]",
COc1cc(C=CC(=O)c2cc(OC)c(OC)c(OC)c2)cc(OC)c1OC,"inconclusive: 17.8 µM [inhibitor, partial curve, poor fit]",
CC(=O)Nc1cccc(-c2cnc(N)c(C(=O)c3cccnc3)n2)c1,"inconclusive: 15.8 µM [inhibitor, partial curve]",
O=C(NCc1ccccc1)c1onc(CS(=O)(=O)c2ccc(Cl)cc2)c1C(=O)NCc1ccccc1,"inconclusive: 10 µM [inhibitor, partial curve, poor fit]",
O=C(NN=Cc1c(O)ccc2ccccc12)c1ccc2c(c1)OCO2,active: 3.16 µM,
N#CCSc1nc(Nc2ccc3c(c2)OCO3)c2ccccc2n1,,inactive: -20.7%
CCCCN(C)CC(O)Cn1cc(/C=C/C(=O)c2ccc(OC)c(OC)c2)c2ccccc21 (centres undefined),active: 22.4 µM,
C[C@H](CO)N1C[C@H](C)[C@@H](CN(C)CC2CCCCC2)Oc2c(NC(=O)Cc3ccccc3)cccc2C1=O,"inconclusive: 39.8 µM [inhibitor, single point]",
COc1ccc(N2CCN(c3nc(NCCc4ccc(OC)c(OC)c4)nc(OC)n3)CC2)cc1,active: 28.2 µM,
O=C(NN(c1ccccc1)c1ccccc1)c1ccc([N+](=O)[O-])o1,"inconclusive: 22.4 µM [inhibitor, single point]",

SMILES,Potency,"activity change, negative = inhibition"
CCC(=O)NC[C@H](Cc1ccc(OCCc2nc(-c3ccccc3)oc2C)cc1)NC(C)=CC(=O)c1ccc(C(F)(F)F)cc1,active: 21.7 µM,
O=S(=O)(c1ccccc1)c1ncc(C(F)(F)F)cc1Cl,"inconclusive: 37.7 µM [inhibitor, single point]",
C=CCNc1nc(NCc2cccc(OC)c2)c2sc(-c3ccccc3)cc2n1,"inconclusive: 39.8 µM [inhibitor, single point]",
O=C1c2cccc(NCCCNCCO)c2C(=O)c2cccc(NCCCNCCO)c21,active: 13.4 µM,
CCOc1ccc(CN2CCN(c3ncnc4scc(-c5ccccc5)c34)CC2)cc1,,inactive: -26.8%
CC1(C(=O)NS(=O)(=O)c2cccc(OC(F)F)c2)CCN1C(=O)CC1CCCC1 (centres undefined),,inactive: 7.94%
O=C(c1cccs1)N1CCN(S(=O)(=O)N2CCOCC2)CC1,,inactive: 0%
Cc1onc(-c2ccccc2)c1C(=O)OCC(=O)Nc1ccc(OC(F)(F)F)cc1,"inconclusive: 15.8 µM [inhibitor, partial curve, poor fit]",
CCO[C@@H]1OC(C(=O)N2CCN(Cc3ccc4c(c3)OCO4)CC2)=C[C@H](c2csc3ccccc23)[C@H]1CCCO,"inconclusive: 39.8 µM [inhibitor, single point]",
CN1C(=O)c2ccccc2Sc2ccc(NC(=O)Cc3c(F)cccc3Cl)cc21,,inactive: 0%
COc1ccc(S(=O)(=O)N(C)C[C@H]2Oc3c(NC(=O)Nc4ccc(C(F)(F)F)cc4)cccc3C(=O)N([C@H](C)CO)C[C@@H]2C)cc1,"inconclusive: 39.8 µM [inhibitor, single point]",
CCOC(=O)/C=c1/s/c(=C/c2ccc3cc(OC)ccc3c2)c(=O)n1CC(=O)NCc1ccc2c(c1)OCO2,"inconclusive: 25.1 µM [inhibitor, partial curve, poor fit]",
CCCCNC(=S)NC1CCCC1,,inactive: -0.21%
CC[C@]12c3[nH]c4ccccc4c3CCN1C(=O)C(CC(=O)NC/C=C(\C)CCC=C(C)C)C[C@@H]2C(=O)N1CCN(C(=O)C2CC2)CC1 (some centres undefined),"inconclusive: 39.8 µM [inhibitor, single point]",
CNc1ccc(Br)cc(C(=O)/C=C/c2ccc(OC)cc2)c1=O,"inconclusive: 16.8 µM [inhibitor, partial curve, poor fit]",
CCOc1ncccc1C(=O)N(C)CC(=O)Nc1ccc(C)cc1,,inactive: -10.2%
Cn1cc(S(=O)(=O)N2CCCCCC2)cc1C(=O)NCc1ccc(Cl)cc1,"inconclusive: 22.4 µM [inhibitor, single point]",
CC(C)NC(=O)Nc1ccc2c(c1)C(=O)N([C@H](C)CO)C[C@H](C)[C@@H](CN(C)Cc1ccc(C(F)(F)F)cc1)OCCCC[C@H](C)O2,"inconclusive: 39.8 µM [inhibitor, single point]",
Cc1ccc(S(=O)(=O)N2CCC(C(=O)NNC(=O)c3ccccc3O)CC2)cc1C,"inconclusive: 17.8 µM [inhibitor, partial curve]",
CC(C)CN(C(=O)COC(=O)C12CC3CC(CC(C3)C1)C2)c1c(N)n(Cc2ccccc2)c(=O)[nH]c1=O,active: 14.1 µM,
